A word on the % Inhibition: it is the drop in the measured response relative to a control, in per cent.

Hit rate of the full screen: of about 150,000 compounds, about 540 (0.36%) showed an effect of 50% or more. The list shows a part of the results.

This is an account of results in ChEMBL document CHEMBL4888484, “Replenishing the malaria drug discovery pipeline: Screening and hit evaluation of the MMV Hit Generation Library 1 (HGL1) against asexual blood stage Plasmodium falciparum ,using a nano luciferase reporter read-out” (2022).

The test has as its system Plasmodium falciparum. Briefly: Primary screen in NF54 nanoGlo assay, in single point, at 2uM, 72h; a lower Z score goes with more inhibition. In kind it is functional, Erythrocyte. The settings on record: timepoint 72 hour.
With `COc1ccc(COC(=O)c2ccncc2)cn1`, the “% Inhibition” value is -14% and the Z score is on record as 2.24.
On the same counts, the results for `CC(C)Cc1cc(C(=O)N2CC[C@@H]3OCc4cnnn4[C@H]3C2)no1` are 0% and -0.05.
On the same counts, the results for `O=C(c1cccc(S(=O)(=O)N2CCCCC2)c1)N1CCC[C@H](c2nc3ccccc3s2)C1` are -3% and 0.47.
Consider `CCc1nc2c(N3CCC[C@]4(CCC(=O)N(C(C)C)C4)C3)ncnc2o1`, for which the “% Inhibition” value was -4% and the Z score was found to be 0.82.
In the case of `Cc1cc(Cl)ccc1O[C@@H](C)c1ncnn1CCCO`, the “% Inhibition” value is 1% and the Z score was -0.17.
On the same counts, the results for `N[C@H]1CCCN(C(=O)Nc2ccc(F)c(Cl)c2)CC1` are -6% and 0.84.
Turning to `Cc1nc([C@H]2CCS(=O)(=O)C2)n(-c2cc(S(N)(=O)=O)ccc2F)n1`, the “% Inhibition” value was found to be 2% and the Z score was -0.46.
On the same counts, the results for `C=C(C)C(=O)Nc1ccc(Cc2ccc(NC(=O)C(=C)C)c(O)c2)cc1O` are 0% and -0.04.
Consider `COc1ccc(OC[C@@H](O)CN2CCC(O)CC2)c(CN(C)Cc2csc(C)n2)c1`, for which the “% Inhibition” value is given as -18% and the Z score was 2.05.
Regarding `Cc1cc(CCC(=O)N(C)[C@@H]2COC[C@H]2O)c(C)s1`, the “% Inhibition” value is -2% and the Z score was 0.25.
On the same counts, the results for `Cn1nc(C(F)F)c2cc(C(=O)N3CCn4ncnc4C3)sc21` are 4% and -0.5.
Take `O=C(c1nnn2c1CO[C@H](c1ccccc1)C2)N1CCOCC1`: the “% Inhibition” value is on record as -1% and the Z score stood at 0.16.
Take `Brc1ccc(C2(c3nnc(CC4CCCCC4)o3)CCOCC2)cc1`: the “% Inhibition” value is -1% and the Z score is on record as 0.12.
With `Cc1ncc(CN2CC[C@@]3(CCCN(Cc4cccc(F)c4F)C3=O)C2)n1C`, the “% Inhibition” value was -6% and the Z score was 0.77.
With `CCCOc1ccc(CNC(=O)c2cc(COC(C)(C)C)on2)c(C)c1`, the “% Inhibition” value is -8% and the Z score stood at 1.21.
On the same counts, the results for `CC(=O)N(Cc1cccnc1)[C@H]1CCCN(Cc2cc(C)nn2C)C1` are -2% and 0.16.
Turning to `CCc1ncc(CN(C)Cc2ccccc2CN(C)C)cn1`, the “% Inhibition” value is on record as -11% and the Z score stood at 1.2.
Take `O=C(C1CCCC1)N1CC[C@H](Cc2noc(-c3ccncc3)n2)C1`: the “% Inhibition” value is listed as -7% and the Z score was found to be 0.83.
On the same counts, the results for `Cc1cc2ccccc2cc1CN1CCOCC1` are -4% and 0.8.
On the same counts, the results for `CC1Cc2ccccc2N1C(=O)C1CC2CCCC(C1)C2=O` (stereo not given) are 12% and -1.42.
On the same counts, the results for `Cc1ccc(CNC(=O)N(C)CC2(O)CCOCC2)s1` are -22% and 2.93.
`O=C1[C@@H]2Cc3c([nH]c4ccccc34)C(CCc3ccccc3)N2C(=O)CN1CCN1CCOCC1` (stereo not given in full): the “% Inhibition” value is listed as -18% and the Z score is on record as 2.72.
Turning to `O=C(NCCc1csc(-c2ncccn2)n1)[C@@H]1NCCc2[nH]cnc21`, the “% Inhibition” value is 2% and the Z score is recorded as -0.18.
On the same counts, the results for `CC(=O)c1cn([C@@H](C)C(=O)NCCN2CCNC2=O)c2ccccc12` are -12% and 1.07.
Consider `Cc1ncnc(N2CC[C@H](c3ccccc3F)C2)c1C`, for which the “% Inhibition” value is listed as -15% and the Z score stood at 2.2.
As for `O=C(N[C@H]1CCn2nccc2C1)c1ccccc1Br`, the “% Inhibition” value was -10% and the Z score is on record as 1.62.
With `CC(C)c1nsc(N2CC3CCCC3C2)n1` (stereo not given), the “% Inhibition” value is on record as -5% and the Z score is reported as 0.71.
`CC(C)c1cc(C(=O)N2CCC[C@H](S(=O)(=O)N3CCOCC3)C2)nn1C`: the “% Inhibition” value is listed as -9% and the Z score is given as 1.15.
On the same counts, the results for `CC(C)Cc1ncc(C(=O)NCc2ncccc2O)s1` are 0% and -0.01.
On the same counts, the results for `COc1nc2ccn(CCn3nc(C)nc3C)c(=O)c2cc1C#N` are -15% and 1.69.
On the same counts, the results for `Cc1cc(C)cc(C(=O)N2CCCC[C@H]2C(=O)N2CCS(=O)(=O)CC2)c1` are -3% and 0.64.
Turning to `Cn1nc(C(=O)N2CCO[C@H](C(C)(C)C)C2)cc1O`, the “% Inhibition” value amounted to 5% and the Z score was -0.51.
Turning to `Cc1n[nH]c(C)c1C(C)C(=O)N(C)CC(C)c1ccccc1` (stereo not given), the “% Inhibition” value is given as -7% and the Z score amounted to 1.07.
On the same counts, the results for `CCC(C)N1CCC(F)(F)C(CO)C1` (stereo not given) are -7% and 0.85.
On the same counts, the results for `CC(C(=O)C(C#N)c1ccccn1)c1c(Cl)cccc1Cl` (stereo not given) are 3% and -0.44.
On the same counts, the results for `CN(C)[C@H]1[C@@H]2CC[C@H]1CN(C(=O)Nc1cc(F)c(C(F)(F)F)cc1F)C2` are -4% and 0.7.
Turning to `CCOC(=O)CNC(=O)c1cc(-c2ccc[nH]2)n[nH]1`, the “% Inhibition” value is reported as -4% and the Z score is 0.48.
On the same counts, the results for `CC(C)Cc1nc(CN(C)S(=O)(=O)N2CCCC2)no1` are 6% and -0.98.
On the same counts, the results for `Cc1ccccc1OCC(=O)NCc1nc(-c2cc[nH]c(=O)c2)no1` are -12% and 2.07.
In the case of `COc1ccc(NC(=O)C(=O)c2ccc[nH]2)cc1Cl`, the “% Inhibition” value is recorded as 1% and the Z score is reported as -0.09.
In the case of `Cc1nn(C)c(C)c1CNc1cccc(C(=O)NCc2ccccn2)c1`, the “% Inhibition” value was -10% and the Z score is reported as 1.37.
On the same counts, the results for `CC1CCN(C(=O)[C@@H]2CCCCc3nnc(-c4ccccc4)n32)CC1` are -8% and 1.24.
For the compound `NC(=O)C[C@H](c1cn(Cc2ccccc2)c2ccccc12)C1CCCCC1`, the “% Inhibition” value was -14% and the Z score is listed as 2.65.
On the same counts, the results for `O=C(NCc1ccc(F)cc1)Nc1nnc(-c2ccccc2Cl)o1` are -1% and 0.09.
On the same counts, the results for `c1n[nH]cc1Nc1nc(C2CCCCC2)ns1` are 29% and -3.27.
With `CCOC(=O)CC1C(=O)NC2CCCCC2N1C(=O)Nc1ccc(Cl)cc1` (stereo not given), the “% Inhibition” value is -11% and the Z score is 1.74.
On the same counts, the results for `O=C(NC[C@@H](c1ccco1)N1CCCC1)c1cnc(-c2ccncc2)nc1` are 5% and -0.86.
On the same counts, the results for `Cc1ccc(NC2CCN(C)CC2)cc1NC(=O)Cc1cccc2ccccc12` are -13% and 1.61.
On the same counts, the results for `c1ccc(CN2CCC(c3ccsc3)CC2)nc1` are -1% and 0.1.
As to `COc1ccccc1NC(=O)c1c(OC)cc(=O)n2c1CCCC2`, the “% Inhibition” value is given as -3% and the Z score was determined as 0.44.
On to `O=C1C[C@@H]2O[C@H](CN(Cc3ccc(F)c(F)c3)C[C@@H]3CN(CCO3)C(=O)[C@@H]3C[C@@H](CN3C3Cc4ccccc4C3)N1)[C@@H](O)[C@H]2O`, for which the “% Inhibition” value stood at 15% and the Z score is on record as -1.75.
For `Cc1cc(Cl)c2c(c1)c(=O)c(C#N)cn2CC(=O)N1CCC[C@H](C)C1`, the “% Inhibition” value is -3% and the Z score is 0.48.
Regarding `CCc1cc(-c2nccn2CCN2CCc3ccccc32)on1`, the “% Inhibition” value is reported as 14% and the Z score is given as -1.84.
On the same counts, the results for `CC(C)(NC(=O)c1nccn2ccnc12)C(=O)Nc1ccccc1` are -3% and 0.43.
On the same counts, the results for `CC(C)[C@H](NC(=O)C(=O)Nc1cnc2ccccc2c1)c1ccccn1` are -23% and 4.32.
On the same counts, the results for `N#CCCCn1nnnc1CCCc1ccccc1` are -10% and 1.49.
Regarding `CCN1[C@H](C)CN(Cc2nnnn2C(C)(C)C)C[C@@H]1C`, the “% Inhibition” value was -2% and the Z score was found to be 0.26.
On the same counts, the results for `C[C@@H](Cn1cncn1)NC(=O)CCC(F)(F)F` are -18% and 3.15.
On the same counts, the results for `Cc1noc2c1N=C(c1ccc(F)cc1)C[C@@H](c1ccc(F)cc1)C2` are 36% and -4.61.
On the same counts, the results for `COC(=O)[C@]1(F)CCN(Cc2nc(-c3ccccc3)cs2)C1` are -9% and 1.83.
For the compound `C[C@@H](CN1CCOCC1)NC(=O)c1ccc2ncsc2c1`, the “% Inhibition” value was -1% and the Z score is on record as 0.17.
For the compound `O=C(CO[C@H]1CCOC1)N1CCCc2cc(Cl)ccc21`, the “% Inhibition” value is -4% and the Z score stood at 0.32.
In the case of `CCOc1ccc(NS(=O)(=O)c2ccc(-c3[nH]ncc3C(=O)N3CCCCC3)o2)cc1`, the “% Inhibition” value was -10% and the Z score was found to be 1.15.
Regarding `Cc1cc(Cl)cc(C(=O)N(C[C@H](C)O)C(C)C)c1`, the “% Inhibition” value was 9% and the Z score was -1.73.
On the same counts, the results for `COC(=O)c1cccc(CN2C[C@@H]3C[C@@H](O)CN3C3(C2)CN(Cc2ccc(S(C)(=O)=O)cc2)C3)c1` are 8% and -1.44.
On the same counts, the results for `Cc1ccccc1CC1(NC(=O)CC2CCNCC2)CC1` are 3% and -0.46.
On the same counts, the results for `C[C@@H](CCC(=O)NCc1cc(-c2ccccc2F)no1)N1CCOCC1` are -8% and 1.25.
As for `CCC(=O)N1CCN(C(C)=O)[C@@H]1c1ccccc1`, the “% Inhibition” value is recorded as 6% and the Z score is listed as -0.78.
In the case of `Cc1oc(-c2cccc(F)c2)[n+]([O-])c1C`, the “% Inhibition” value turned out to be 5% and the Z score is on record as -0.64.
As for `Cc1noc(CN2CCN([C@H]3CCN(Cc4ccccc4F)C3)C2=O)n1`, the “% Inhibition” value was found to be 0% and the Z score is listed as -0.05.
As to `COc1cc(OC)cc(C(=O)N(C)C)c1`, the “% Inhibition” value is given as -3% and the Z score is given as 0.4.
On the same counts, the results for `O=C(Cc1nnc(-c2cccs2)o1)NC1CCCCCC1` are -14% and 1.44.
For `COc1cncc(S(=O)(=O)N2c3ccccc3CC2(C)C)c1`, the “% Inhibition” value was 21% and the Z score is -2.73.
Turning to `O=C(c1cc2ccccc2c(=O)[nH]1)N1CCC(Nc2cccnc2)CC1`, the “% Inhibition” value is -12% and the Z score was 2.07.
As to `Cc1ccc([C@@H]2CCCN2S(=O)(=O)CCOC(C)C)s1`, the “% Inhibition” value is -1% and the Z score came out at 0.21.
On the same counts, the results for `CCn1cc(Br)c(=O)c(NC(=O)[C@H]2CCCOC2)c1` are 30% and -4.
On the same counts, the results for `Cc1nc(-n2cnnc2)ccc1-c1cc(O)cc(CC[C@H]2CCCCN2)c1` are -7% and 0.8.
On the same counts, the results for `O=C(Nc1ccccc1F)N[C@H]1CCCS(=O)(=O)C1` are 3% and -0.38.
As to `Cc1ccccc1C(=O)N(Cc1ccc(F)cc1)c1cccc(CC(=O)NCCCN2CCOCC2)c1`, the “% Inhibition” value was -2% and the Z score came to 0.15.
On the same counts, the results for `Cc1noc(C)c1NC(=O)NCCCCn1ccnc1C` are 8% and -0.88.
On the same counts, the results for `CCc1ccc(-c2ccc(NC3CCCCC3C)nn2)cc1S(N)(=O)=O` (stereo not given) are -25% and 4.92.
Take `Cn1cc(Cl)c(C(=O)N2CCC[C@H]2c2cccs2)n1`: the “% Inhibition” value is -6% and the Z score was 1.17.
Take `O=S(=O)(c1ccc2c(c1)CCC2)N1CCC(c2ncc[nH]2)CC1`: the “% Inhibition” value worked out at 2% and the Z score was -0.35.
On the same counts, the results for `COCCC(=O)N[C@H]1CC[C@]2(C)CC[C@@H]([C@H](C)C(=O)NCc3ccccn3)[C@H](O)[C@H]2[C@@H]1C` are -9% and 1.15.
On the same counts, the results for `O=C(NC1CCCC1CCO)N1CCc2ccccc2CC1` (stereo not given) are -5% and 0.73.
